Drawing on the supplement of paper PMC4604168 (melanoma cell lines), this text covers cell count for 6 molecules.

Some of the results follow. Single values are uncertain, as repeats are few or missing.
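Note: cell number obtained by counting DAPI-stained nuclei in high-throughput microscope images with image analysis software, screen run in 1,536-well plates.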

This test relates to RPMI7951. Put plainly: cell count relative to DMSO control; melanoma cells; higher = more viable cells. To be noted: library dose: low library concentration; 72 h.
The molecule `CC(C)(C)c1cnc(CSc2cnc(NC(=O)C3CCNCC3)s2)o1` + COc1ccc2c(c1)CCC1C2CCC2(C)C(NCCCCCCN3C(=O)C=CC3=O)CCC12 [U73122] (first compound 0.01 µM, partner dose 0.4 µM) yielded a cell count of 86.7%.

The molecule `CC(C)(C)c1cnc(CSc2cnc(NC(=O)C3CCNCC3)s2)o1` + Oc1cc(-c2nc(-c3ccccc3)[nH]c2-c2ccncc2)ccc1Cl [L779450] (first compound 0.01 µM, partner dose 0.2 µM) had a cell count of 78%.

In turn, `CC(C)(C)c1cnc(CSc2cnc(NC(=O)C3CCNCC3)s2)o1` + Cn1cc(/C=C2\C(=O)Nc3cccnc32)c2ccccc21 [GW441756] (first compound 0.01 µM, partner dose 0.4 µM) yielded a cell count of 101%.

Turning to `CN(NC(=O)CC(=O)NN(C)C(=S)c1ccccc1)C(=S)c1ccccc1` + COc1cc2ncnc(Nc3ccc(Oc4ccccc4)cc3)c2cc1OC [SrcI1] (first compound 0.006 µM, partner dose 2 µM), the cell count worked out at 107%.

Regarding `CCc1ccc(CCOc2ccc(CC3SC(=O)NC3=O)cc2)nc1` (stereo unspecified) [pioglitazone] + c1cc(-c2cnn3cc(-c4ccc(OCCN5CCCCC5)cc4)cnc23)ccn1 [Dorsomorphin] (first compound 2 µM, partner dose 0.4 µM), the cell count was found to be 94%.

As to `Cc1ccc(NC(=O)c2cccc(N(C)C)c2)cc1NC(=O)c1ccc(O)cc1` + Cn1cc(/C=C2\C(=O)Nc3cccnc32)c2ccccc21 [GW441756] (first compound 2 µM, partner dose 0.4 µM), the cell count was found to be 85.2%.
